Test results as given in PubChem BioAssay AID1240 (Sanford-Burnham Center for Chemical Genomics, 2008).
The campaign covered roughly 50,000 compounds. About 800 (1.6%) showed an effect of 50% or more. The list shows a part of the results.

The molecules below were run against Bcl-2-like protein 10 (Homo sapiens) (UniProt Q9HD36) (assay: TR3 peptide-Bcl-B binding displacers, biochemical primary FP assay, phenotype converters (AID 1240;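 also: 0% = Bcl-B with tracer peptide and DMSO and 100% = tracer peptide lacking Bcl-B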)). Settings: GST-Bcl-B / FITC-TR3 peptide fluorescence polarization; stronger effect = higher value; compound at 3.75 mg/L.
Chain of UniProt Q9HD36 (Q9HD36 whole entry, looked up): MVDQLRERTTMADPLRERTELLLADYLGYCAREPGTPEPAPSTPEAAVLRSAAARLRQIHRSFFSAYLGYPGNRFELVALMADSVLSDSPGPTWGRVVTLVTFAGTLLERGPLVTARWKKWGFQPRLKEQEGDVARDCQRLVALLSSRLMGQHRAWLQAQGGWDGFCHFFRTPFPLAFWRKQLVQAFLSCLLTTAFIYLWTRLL

SMILES | displacement
Cc1cccc(NC(=O)CSc2nnc(-c3ccccc3)c(-c3ccccc3)n2)c1C | -4.3%
CC(=O)c1c(OC(=O)c2ccco2)ccc2c(C)cc(=O)oc12 | 15.5%
CCn1c2c(c3cc([N+](=O)[O-])ccc31)CCCC2=O | 12.9%
C/C(=N\NC(=O)c1cc(C2CC2)[nH]n1)c1ccc(C)cc1 | -18.4%
Clc1cccc(/C=N\N2CCN(c3ccccc3)CC2)c1Cl | 1.1%
COc1ccc(NC(=O)CN(c2cccc([N+](=O)[O-])c2)S(=O)(=O)c2ccccc2)cc1OC | 14.2%
Cc1ccc(/C(O)=C2\C(=O)C(=O)N(CCCC(=O)O)C2c2ccc(F)cc2)cc1 (centres undefined) | 0.2%
COc1cc(C)c(Nc2ccccc2)c(C)c1 | 4.7%
CCCC(=O)C1=C(C(=O)OC)C(C)(C)C/C1=N/OCC | -13%
Cc1cc(C)c(S(=O)(=O)Nc2cc([N+](=O)[O-])ccc2C)c(C)c1 | 12.8%
O=C(NCCN1CCOCC1)c1cc2nc(-c3ccc(Cl)c(Cl)c3)cc(C(F)(F)F)n2n1 | 9.2%
O=C(Nc1ccccc1)O/N=C/c1c(F)cccc1Cl | 4.3%
COC(=O)C1=C(C)NC(=O)NC1c1ccc(-c2ccccc2)cc1 (centres undefined) | 4.7%
CC(=O)Nc1ccccc1NS(=O)(=O)c1cccc([N+](=O)[O-])c1 | 1.1%
O=S(=O)(c1cccc2c(S(=O)(=O)N3CCOCC3)cccc12)N1CCOCC1 | 6.7%
O=C(CSCC(=O)Nc1ccc2ccccc2c1)Nc1ccccc1 | -15.4%
c1ccc(NC2=Nc3ccccc3CCC2)cc1 | -1.5%
Cc1cc(=O)oc2cc(OCC(=O)Nc3sc4c(c3C(N)=O)CCC4)ccc12 | 18%
COc1ccc(/C=C2\C(=O)NC(=O)N(c3ccc(Cl)cc3)C2=O)cc1C | 4.9%
COC(=O)c1cc(NC(=O)c2ccccc2Br)cc(C(=O)OC)c1 | 15%
O=C(NCCC1=CCCCC1)c1cc(Cl)ccc1[N+](=O)[O-] | -8.7%
CCCS(=O)(=O)c1c(S(=O)(=O)CCC)c2c(C)cccn2c1C(N)=O | -9.8%

SMILES | displacement
COc1ccc(OCC(=O)Nc2cccc(OC)c2)cc1 | 23.9%
COC(=O)c1ccccc1NC(=O)C1CCC(C)(C(=O)O)C1(C)C (centres undefined) | -2.2%
COc1cc(NC(=O)C(c2ccccc2)c2ccccc2)ccc1NC(=O)c1ccco1 | -5.3%
O=C(Nc1ccc(Nc2ccccc2)cc1)c1ccc(Br)cc1 | -2.2%
COc1cc(/C=C/C(=O)c2c(-c3ccccc3)c3cc(Cl)ccc3[nH]c2=O)cc(Br)c1OC | 2.8%
Cc1cc(NC(=O)c2ccccc2)sc1C | 13.5%
CCN(CC)CCN1C(=O)C(O)=C(C(=O)/C=C/c2ccccc2)C1c1ccc(Br)cc1 (centres undefined) | 11.4%
CCOC(=O)c1c(NC(=O)COc2ccccc2)sc(C(=O)Nc2cc(C(F)(F)F)ccc2Cl)c1C | 13.2%
O=C(NCCNc1ccc(C(F)(F)F)cc1[N+](=O)[O-])c1cc(F)c(F)cc1Cl | -0.7%
CCCOc1cc2oc(=O)c3c(c2cc1Cl)CCCC3 | -7.1%
COc1ccc(-c2noc(COc3ccc(Cl)cc3)n2)cc1 | 12.8%
O=C(Nc1ccccc1)O/N=C\c1ccc(F)cc1 | 10.2%
Oc1ccc(/C=N/Nc2nnc(-c3ccccc3)c(-c3ccccc3)n2)cc1 | 1.7%
O=C1C(=O)N(Cc2ccc(Cl)c(Cl)c2)c2ccccc21 | -1.1%
Cc1ccc(S(=O)(=O)NC(=O)Nc2ccccc2F)cc1 | 14.4%
Cc1nc2ccccc2n1C(=O)c1ccc([N+](=O)[O-])cc1 | 11%
Cc1ccc(C2OC3(C(=O)c4ccccc4C3=O)C(c3cccc(Cl)c3)C23C(=O)c2ccccc2C3=O)cc1 (centres undefined) | 2%
C=CCOc1ccc(/C=C2\SC(=S)N(Cc3ccccc3)C2=O)cc1OC | 11.8%
COc1ccccc1N1CCN(C(=O)c2sc3cc(C)ccc3c2Cl)CC1 | -7.2%
COc1ccc(/C(N)=N/OC(=O)/C=C/c2ccccc2)cc1 | -11.5%
Cc1ccccc1/C=C(/C#N)C(=O)Nc1cccc(Br)c1 | -9.8%
FC(F)(F)c1nc2ccccc2nc1-c1ccccc1 | -4.6%

SMILES | displacement
COc1cc(/C=C2\SC(NC(C)=O)=NC2=O)cc2sc(=O)oc12 | 24.7%
COc1ccc(N2C(=O)C3C4c5ccccc5C(C)(c5ccccc54)C3C2=O)cc1 (centres undefined) | 3.8%
CC1(C)CC(=O)c2c(oc3ccc(NS(=O)(=O)c4ccc(Br)cc4)cc23)C1 | 2.5%
COc1ccc(/C=C/C(=O)NCc2ccc(C)cc2)cc1OC | 9.4%
O=S(=O)(c1ccc2ccccc2c1)N(CC(O)CN1CCOCC1)c1ccccc1 (centres undefined) | -0.7%
COc1cccc(CNCc2ccccc2[N+](=O)[O-])c1OC | 8.5%
CCOC(=O)CCc1c(C)nc2cc(-c3ccc(Cl)cc3)[nH]n2c1=O | -0.7%
O=C1S/C(=C\c2ccc(Br)c([N+](=O)[O-])c2)C(=O)N1c1ccccc1 | 7.6%
CC1=NN(C(=O)c2ccc([N+](=O)[O-])cc2)C(O)(C(F)(F)F)C1 (centres undefined) | 6.8%
CC1CCCC(C)N1CC(O)COc1ccccc1C(C)(C)C (centres undefined) | 1%
COc1ccc(-n2cnc3cc(NC(C)=O)ccc32)cc1 | -12%
Cc1ccc(N2C(=O)/C(=C/C3CC=CCC3)SC2=S)cc1 (centres undefined) | 15.3%
CCOC(=O)C1(Nc2ccc(C)cc2)Sc2cc(C)ccc2NC1=O (centres undefined) | 9.1%
O=C(Nc1nc(-c2ccc(Cl)c(Cl)c2)cs1)c1ccc(S(=O)(=O)N2CCOCC2)cc1 | -0.5%
Cc1ccc(N2NC(=O)/C(=C/c3cc([N+](=O)[O-])ccc3Cl)C2=O)cc1C | 27.9%
CCN(CC)C(=O)CN(c1ccc(OC)cc1)S(C)(=O)=O | 5.1%
O=C(O)c1cc(-c2ccc(/C=C3/Sc4ccccc4C3=O)o2)ccc1O | -7.1%
Cc1cccc(-c2cc3nc(-c4ccc([N+](=O)[O-])cc4)cc(=O)n3[nH]2)c1 | 0.1%
COc1c(Cl)cc(C(=O)Nc2ccc(I)cc2Cl)cc1Cl | 14.6%
O=CN1CCN(C(=O)c2ccc(F)cc2)CC1 | -0.6%
OC(COCc1ccc(Cl)cc1)CSc1ccccn1 (centres undefined) | -10.9%
COc1ccccc1C1CC(c2ccc(Br)cc2)=NN1C(=O)CCC(=O)O (centres undefined) | -18.1%

SMILES | displacement
O=C(/C=C/c1ccco1)Nc1cccc([N+](=O)[O-])c1 | 5.3%
COc1ccc(CN2CCN(Cc3ccncc3)CC2)c(OC)c1OC | 3.6%
CSc1ccccc1NC(=O)CSc1nc2ccccc2s1 | 0.1%
COc1ccccc1NC(=O)c1ccc2c(c1)C(=O)N(N1C(=O)c3ccccc3C1=O)C2=O | -0.6%
Cc1onc(-c2ccccc2Cl)c1C(=O)N1CCN(c2ccccc2F)CC1 | -4.1%
Cc1ccc(OCC(=O)Nc2ccc(I)cc2)cc1 | -6.5%
COc1ccc(Oc2coc3cc(OC(C)=O)ccc3c2=O)cc1 | 11.2%
CCOc1ccc(OCC)c(S(=O)(=O)n2cc(C)nc2CC)c1 | 12.3%
COc1ccccc1C/C(N)=N/OC(=O)COc1ccccc1C | 4.6%
O=C(c1ccco1)N1CCN(Cc2cccc(Cl)c2)CC1 | 4.9%
C=CCOc1c(Br)cc(C2C(C(=O)OC)=C(C)NC3=C2C(=O)c2ccccc23)cc1OC (centres undefined) | 9.7%
COc1ccc(OC)c(NC(=S)NC(NC(=O)c2cccc(C)c2)C(Cl)(Cl)Cl)c1 (centres undefined) | 11.2%
O=C(NC(=S)Nc1ccc(Cl)c(-c2nc3cc(Cl)ccc3o2)c1)c1ccco1 | 23.3%
CCOc1cccc(/C=C2\SC(=O)N(c3ccccc3)C2=O)c1O | 3%
COc1ccc(-c2nc3cc(NC(=O)COc4ccc(Br)cc4)ccc3o2)cc1 | 4.5%
COc1ccc(/C=C/C(=O)NC(=S)Nc2ccccc2Cl)cc1OC | 12.6%
O=C(NCCc1ccc(Cl)cc1)Nc1ccc(Br)cc1 | 13.2%
CCOC(=O)c1ccc(NC(=O)C2CC(=O)N(c3ccc(F)cc3)C2)cc1 (centres undefined) | 6.3%
Cc1ccc(/C=C2\SC(=Nc3ccc(O)cc3)NC2=O)cc1 | 0.1%
CCCCOc1ccc(C(=O)NC(C)c2ccc(OC)cc2)cc1 (centres undefined) | -5.3%
CC1CC(Nc2ccccc2)c2ccccc2N1C(=O)c1ccc(NS(C)(=O)=O)cc1 (centres undefined) | 8.6%
COc1ccc(O)c(/C=N/c2ncn[nH]2)c1 | -8%

SMILES | displacement
O=C1CC(c2ccccc2)c2c(ccc3ccccc23)O1 (centres undefined) | 9.8%
COc1cc(C2SCC(=O)N2Cc2ccco2)ccc1O (centres undefined) | -4.6%
COc1ccc(C2CC(C(F)(F)F)n3ncc(C(=O)NCCc4ccccc4)c3N2)cc1OC (centres undefined) | 5.1%
CCCC(=O)Nc1cc(-c2nc3cc(Cl)cc(Cl)c3o2)ccc1C | -1.2%
COc1ccc(Nc2cc(C)nc3c(C)cccc23)cc1 | 1%
COc1cc(Br)cc(/C=N/N(C)C2=NS(=O)(=O)c3cc([N+](=O)[O-])ccc32)c1OC | -2.4%
COc1ccc(OC)c(S(=O)(=O)NCc2ccc3c(c2)OCO3)c1 | -9.4%
COc1ccc(OC)c(NC(=O)/C(=C/c2ccccc2)c2ccccc2)c1 | 13.2%
Cc1ccc(S(=O)(=O)Nc2cc(Cl)c(O)c(C)c2C)cc1 | 9.1%
CC(=O)Oc1ccc(-c2cccc(C(=O)OC(C)C)c2)cc1 | 13.2%
Cc1ccc(S(=O)(=O)N(Cc2ccccc2)c2ccccc2C(=O)NCc2cccnc2)cc1 | 5.9%
Cc1nc2c(C)cccc2c2c1CC(C(C)(Cl)Br)O2 (centres undefined) | -10.1%
Cc1ccc(COc2ccc3c4c(c(=O)oc3c2)CCC4)cc1 | 14.6%
CC1=NN(C(=O)c2cccc([N+](=O)[O-])c2)C(O)(c2ccc(Br)cc2)C1 (centres undefined) | 12.4%
O=C(NCC1CCCO1)c1ccc(Br)cc1 (centres undefined) | -1.3%
COc1ccc(-n2nc3cc(C)c(NC(=O)c4ccc(C)cc4)cc3n2)cc1 | 5.5%
N#C/C(=C/c1ccc(Sc2ccccc2)o1)C(=O)Nc1ccccc1 | -22.8%
CCn1nnnc1-c1ccc(OC)c(S(=O)(=O)Nc2ccc(F)cc2)c1 | 6.1%
COc1ccccc1C(=O)Nc1ccccc1[N+](=O)[O-] | -0.4%
O=C(NCCN1CCCC1=O)c1ccccc1 | 9.1%
CCCOc1ccc(/C=C2N=C(/C=C/c3ccccc3)OC/2=O)cc1OC | 166%
